Measurements taken from PubChem BioAssay AID1345082 (National Center for Advancing Translational Sciences (NCATS), 2018).
Hit rate of the full screen: of about 94,000 compounds, about 4,000 (4.3%) were called active. The shares of active, inactive and inconclusive entries below differ from those in the screen. Calls come from the whole dose curve; as a rule, active = well fitted inhibition curve with a large enough effect; inconclusive = small, poorly fitted or top-dose-only effect; inactive = no such curve, though single readings can be large or run the other way. Where the call is inconclusive, the potency comes from a doubtful curve fit.

Experiment: Cytotoxic Profiling in NIH 3T3 Cell Line of Diverse Libraries Using Quantitative High-Throughput Screening; note: nearly all actives have a fitted effect of over 55% in size
Conditions: NIH 3T3 viability, CellTiter-Glo ATP luminescence, 48-72 h; activity change, negative = cytotoxicity: at 96.7 µM (top of the series) unless noted; series mostly up to 96.7 µM
In short: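 Luminescent ATP readout (CellTiter-Glo, 10 min RT) after 48 or 72 hr compound exposure of NIH 3T3 cells seeded at 400 cells/well in 1536-well format; quantitative HTS.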
% is set by controls: 0 for no effect and ±100 for the full control effect; potency is the fitted concentration of half-maximal effect; tags give direction and shape of the fitted curve.

Question: With `Cc1cccc(OCCc2noc(C3CN(C(=O)CCc4ccccc4)C3)n2)c1` as the compound, how does the Potency read?
Answer: inconclusive: 50.1 µM [inhibitor, partial curve, poor fit]

Question: Which “activity change, negative = cytotoxicity” value does the source give for `CN(C1CCCc2ccccc21)S(C)(=O)=O` (stereo not given) here?
Answer: inactive: -14.7% [at 138 µM]

Question: With `Cn1ccc2c(C(=O)NCCC(N)=O)nc(-c3cccc(C(F)(F)F)c3)cc21` as the compound, how does the Potency read?
Answer: inconclusive: 56.2 µM [inhibitor, partial curve, poor fit]

Question: Which Potency does the source give for `Cc1cccc([S+](=O)([O-])N2CCC3(CC2)OCCN(CC2CC2)C3=O)c1` here?
Answer: inconclusive: 8.91 µM [inhibitor, partial curve, poor fit]

Question: With `CCN(C(=O)Cn1cccc1-c1nc(-c2ccc(OC)c(F)c2)no1)c1cccc(C)c1` as the compound, how does the Potency read?
Answer: inconclusive: 14.1 µM [inhibitor, full curve]

Question: Which “activity change, negative = cytotoxicity” value does the source give for `COc1ccc(Cl)cc1NC(=O)[C@@H]1COCC(=O)N1Cc1ccc(OC)c(OC)c1` here?
Answer: inactive: 1.3%

Question: With `COc1cccc2c1OCC(Cc1cccc(N3CCNCC3)c1)C2` (stereo not given) as the compound, how does the Potency read?
Answer: inconclusive: 50.1 µM [inhibitor, partial curve, poor fit]

Question: For `COc1cccc(CN2CCc3nc(C(=O)Nc4cccnc4)oc3CC2)c1`, which Potency is on record?
Answer: inconclusive: 44.7 µM [inhibitor, partial curve]

Question: With `FC(F)(F)c1cccc2c(N3CCOC(C(F)(F)F)C3)ccnc12` (stereo not given) as the compound, how does the “activity change, negative = cytotoxicity” value read?
Answer: inactive: -45.8%

Question: For `O=C(Cc1ccc(F)cc1)NC1CCCN(c2ccnc3ccnn23)C1` (stereo not given), which “activity change, negative = cytotoxicity” value is on record?
Answer: inactive: -16%

Question: For `COc1ccc2c(c1)OCC(C(=O)NCCCN1CCCc3ccccc31)C2` (stereo not given), which Potency is on record?
Answer: inconclusive: 56.2 µM [inhibitor, partial curve, poor fit]

Question: Which “activity change, negative = cytotoxicity” value does the source give for `O=C(NCCN1CCOCC1)c1ccc2nccn2c1` here?
Answer: inactive: -1.4% [at 138 µM]

Question: For `Cc1ccc2c(c1)nc1n2[C@@H](CNC2CCC2)COC1`, which Potency is on record?
Answer: inconclusive: 141 µM [inhibitor, single point]

Question: With `CC1(C(=O)O)CCN(C(=O)c2ccc(F)cc2)CC1` as the compound, how does the “outcome” value read?
Answer: inactive [at 138 µM]

Question: Which Potency does the source give for `NC(=O)Cc1c[nH]c2ncc(-c3cccc(F)c3)cc12` here?
Answer: active: 89.1 µM

Question: For `CCN(C)C(C)C(=O)N1CCc2onc(-c3ccc(C(F)(F)F)cc3)c2C1` (stereo not given), which Potency is on record?
Answer: inconclusive: 79.4 µM [inhibitor, partial curve, poor fit]

Question: For `COCC(=O)N[C@H]1CCN2C(=O)N(c3ccc(OC(F)(F)F)cc3)C(=O)[C@@H]2C1`, which “activity change, negative = cytotoxicity” value is on record?
Answer: inactive: 1.56% [at 174 µM]

Question: Which Potency does the source give for `O=C(NC1CCCN(c2cc(-c3ccccc3)[nH]n2)C1)c1cccc2[nH]ccc12` (stereo not given) here?
Answer: inconclusive: 50.1 µM [inhibitor, partial curve, poor fit]

Question: Which “activity change, negative = cytotoxicity” value does the source give for `COCCOC1CN(C2CCN(C(=O)CC3CCN(C(C)=O)CC3)CC2)C12CCCCC2` (stereo not given) here?
Answer: inactive: -14%

Question: For `O=C(O)C1(c2ccccc2)CCN(S(=O)(=O)c2cccs2)CC1`, which Potency is on record?
Answer: inconclusive: 70.8 µM [inhibitor, partial curve, poor fit]

Question: Which Potency does the source give for `COc1ccc(-c2cc(N3CCC(NC(=O)c4cccs4)CC3)n[nH]2)cc1` here?
Answer: inconclusive: 28.2 µM [inhibitor, partial curve]

Question: Which Potency does the source give for `O=C(Nc1cc(-c2cccnc2)nn1-c1ccccc1)c1ccc(C(F)(F)F)cc1` here?
Answer: active: 31.6 µM

Question: With `Cc1ccc(CNC2CN(C(=O)OC(C)(C)C)C2)cc1` as the compound, how does the “activity change, negative = cytotoxicity” value read?
Answer: inactive: -14.4% [at 138 µM]

Question: For `CC(C)C(=O)N1CCCC(c2noc(COc3ccccc3F)n2)C1` (stereo not given), which “activity change, negative = cytotoxicity” value is on record?
Answer: inactive: -19.8%

Question: With `COCc1cc(=O)n(CC(=O)Nc2cc(Cl)ccc2C)c(N2CCOCC2)n1` as the compound, how does the “activity change, negative = cytotoxicity” value read?
Answer: inactive: 0.464%

Question: For `O=C1NCCCCCN(C(=O)NC2CCCCC2)[C@H]2CCC[C@@H]12`, which “activity change, negative = cytotoxicity” value is on record?
Answer: inactive: -6.66%

Question: With `Cc1cnn(CCC(=O)N[C@@H]2CN(Cc3ccccn3)C[C@H]2CN(C)C)c1` as the compound, how does the “activity change, negative = cytotoxicity” value read?
Answer: inactive: -9.54%

Question: With `COc1cccc(CNC(=O)c2c(C)noc2-c2cccs2)c1` as the compound, how does the Potency read?
Answer: inconclusive: 50.1 µM [inhibitor, partial curve, poor fit]

Question: For `COC[C@@H]1CN(Cc2cnn(C)c2)C[C@H]1c1ccncc1`, which “activity change, negative = cytotoxicity” value is on record?
Answer: inactive: 4.83%

Question: Which Potency does the source give for `COc1cccc(N2CCN(C(=O)c3cc4n(n3)CC(c3ccc(Cl)cc3)OC4)CC2)c1` (stereo not given) here?
Answer: inconclusive: 39.8 µM [inhibitor, partial curve, poor fit]

Question: With `COc1cccc(-c2cc(-c3c(C)noc3C)c3cncn3c2)c1` as the compound, how does the Potency read?
Answer: active: 39.8 µM

Question: With `Cn1cc(-c2ccccc2OC(F)(F)F)c2nc(CN3CCNC(=O)C3)cn2c1=O` as the compound, how does the Potency read?
Answer: inconclusive: 100 µM [inhibitor, single point]

Question: With `CC(C)(C)c1ccc(C(=O)N2CCC(c3nc(C4CCOC4)no3)CC2)cc1` (stereo not given) as the compound, how does the Potency read?
Answer: inconclusive: 50.1 µM [inhibitor, partial curve, poor fit]

Question: With `COc1ccc(-c2cnc3[nH]cc(CC(=O)Nc4ccc(F)c(Cl)c4)c3c2)cc1` as the compound, how does the Potency read?
Answer: active: 31.6 µM

Question: For `C[C@H]1[C@@H]2[C@H]3OC(=O)[C@@H](C)[C@@H]3CC[C@@]2(C)CC[C@@H]1NC(=O)Cc1ccccc1`, which Potency is on record?
Answer: inconclusive: 112 µM [inhibitor, single point]

Question: For `CC1=NS(=O)(=O)N(C)C=C1C(=O)OCc1nc(-c2ccc(OC(F)(F)F)cc2)no1`, which Potency is on record?
Answer: inconclusive: 44.7 µM [inhibitor, partial curve, poor fit]

Question: For `Cn1nccc1CN1CCCC2(CN[S+](=O)([O-])c3ccccc3N2)C1` (stereo not given), which “activity change, negative = cytotoxicity” value is on record?
Answer: inactive: -8.19%

Question: With `O=C(NCCn1cccc1-c1nc(-c2ccccc2)no1)c1ccccc1F` as the compound, how does the Potency read?
Answer: inconclusive: 70.8 µM [inhibitor, single point]

Question: For `CC[C@H]1CN(S(C)(=O)=O)CC[C@H]1CC(=O)NCCSC`, which “activity change, negative = cytotoxicity” value is on record?
Answer: inactive: -22.8% [at 174 µM]

Question: For `Cc1noc2c(NCc3cccnc3)cc(-c3ccc(Cl)cc3)nc12`, which Potency is on record?
Answer: inconclusive: 35.5 µM [inhibitor, full curve]

Question: Which Potency does the source give for `O=C(NCc1ccc(Cl)cc1)c1ccc2nnc(-c3ccc(Cl)cc3Cl)n2c1` here?
Answer: active: 31.6 µM

Question: For `O=C(NCc1cccs1)c1ccc2nnc(-c3cc[nH]c3)n2c1`, which Potency is on record?
Answer: inconclusive: 56.2 µM [inhibitor, partial curve, poor fit]

Question: With `F[C@@H]1CN(Cc2ccnc3ccccc23)C[C@@H]1OCc1nc2ncccc2[nH]1` as the compound, how does the Potency read?
Answer: inconclusive: 63.1 µM [inhibitor, full curve]

Question: With `Cc1ccc(C(=O)N2CCC(CCC(=O)NC3CCCCCC3)CC2)cc1` as the compound, how does the Potency read?
Answer: inconclusive: 50.1 µM [inhibitor, single point]

Question: For `CCc1nc2c(c(-c3ccc(O)cc3)n1)CN(Cc1ccccc1)CCC2`, which Potency is on record?
Answer: inconclusive: 50.1 µM [inhibitor, partial curve, poor fit]
